Here are results for four compounds from the supplement of paper PMC4604168 (melanoma cell lines).

Some test systems named below: WM115; WM1716; WM1745; WM3526; WM3619; WM451Lu.
What all share (experiment): cell count relative to DMSO control; melanoma cells; higher = more viable cells
What all share (settings): library dose: low library concentration; 72 h

The list shows a part of the results. Repeats are few or missing, and single values can be far off.
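Also: cell number obtained by counting DAPI-stained nuclei in high-throughput microscope images with image analysis software, screen run in 1,536-well plates.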

For `Cn1cc(C2=C(c3cn(C4CCN(Cc5ccccn5)CC4)c4ccccc34)C(=O)NC2=O)c2ccccc21` [Enzastaurin] + Nc1cccc2c1CN(C1CCC(=O)NC1=O)C2=O [lenalidomide] (first compound 0.8 µM, partner dose 1 µM), the cell count in the experiment on WM115 amounted to 87.5%; in the experiment with WM1716, 93.6%; with WM1745 it was 75.9%; in the experiment on WM3526, 102%; in the experiment with WM3619 it was 85.8%; in the experiment on WM451Lu, 150%.

Take `C[As](C)SC[C@H](NC(=O)CC[C@H](N)C(=O)O)C(=O)NCC(=O)O` [Darinaparsin] + CC(C)CCN1c2nc(Nc3cc(F)c(O)c(F)c3)ncc2N(C)C(=O)C1C [BID1870] (first compound 0.4 µM, partner dose 0.2 µM): the cell count was 90.4% with WM115; 82.8% in the experiment on WM1716; 104% with WM1745; 101% with WM3526; 91.4% in the experiment with WM3619; 104% with WM451Lu.

For the compound `C[C@]12O[C@H](C[C@]1(O)CO)n1c3ccccc3c3c4c(c5c6ccccc6n2c5c31)CNC4=O` [Lestaurtinib] + Nc1ncn([C@H]2C[C@H](O)[C@@H](CO)O2)c(=O)n1 [decitabine] (first compound 0.004 µM, partner dose 0.1 µM), the cell count with WM115 was found to be 73.3%; in the experiment with WM1716, 92.4%; in the experiment on WM1745, 85.5%; with WM3526 it was 82.3%; in the experiment on WM3619, 85.2%; in the experiment on WM451Lu it was 104%.

For `N.N.[Cl][Pt][Cl]` [cisplatin] + O=C(O)C(=O)Nc1sc2c(c1C(=O)O)CCNC2 [TCS401] (first compound 1.6 µM, partner dose 1.66667 µM), the cell count in the experiment with WM115 came out at 94.5%; with WM1716, 96.2%; with WM1745, 92.5%; in the experiment with WM3526 it was 84%; in the experiment on WM3619, 87.1%; with WM451Lu it was 81.5%.
